Laboratory results taken from the supplement of paper PMC8728848.
This is one part of the list.

Key:
Assay in all cases: glycan array binding signal (z-score within array); higher = stronger binding
Conditions in all cases: glycan notation: IUPAC condensed, linker removed
[1] = target: Fuc(a1-2)[GalNAc(a1-3)]Gal(b1-3)GlcNAc(b1-3)GalNAc
Procedure, shortened: (§1)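 The binding signal is a Z-score computed within each array. Data were drawn from 3228 arrays in the Consortium for Functional Glycomics database, restricted to those with a known protein sequence. Scores were averaged over arrays of the same protein sequence at different concentrations or buffers, and over linkers, and negative values can be taken as non-binding.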

[2] = target: Fuc(a1-2)[GalNAc(a1-3)]Gal(b1-3)GlcNAc(b1-6)GalNAc
Procedure, shortened: as §1

[3] = target: Fuc(a1-2)[GalNAc(a1-3)]Gal(b1-4)Glc
Procedure, shortened: as §1

[4] = target: Fuc(a1-2)[GalNAc(a1-3)]Gal(b1-4)GlcNAc
Procedure, shortened: as §1

[5] = target: Fuc(a1-2)[GalNAc(a1-3)]Gal(b1-4)GlcNAc(b1-2)Man
Procedure, shortened: as §1

[6] = target: Fuc(a1-2)[GalNAc(a1-3)]Gal(b1-4)GlcNAc(b1-2)Man(a1-3)[Fuc(a1-2)[GalNAc(a1-3)]Gal(b1-4)GlcNAc(b1-2)Man(a1-6)]Man(b1-4)GlcNAc(b1-4)GlcNAc
Procedure, shortened: as §1

[7] = target: Fuc(a1-2)[GalNAc(a1-3)]Gal(b1-4)GlcNAc(b1-2)Man(a1-3)[Fuc(a1-2)[GalNAc(a1-3)]Gal(b1-4)GlcNAc(b1-2)Man(a1-6)]Man(b1-4)GlcNAc(b1-4)[Fuc(a1-6)]GlcNAc
Procedure, shortened: as §1

[8] = target: Fuc(a1-2)[GalNAc(a1-3)]Gal(b1-4)GlcNAc(b1-3)Gal(b1-4)GlcNAc
Procedure, shortened: as §1

[9] = target: Fuc(a1-2)[GalNAc(a1-3)]Gal(b1-4)GlcNAc(b1-3)Gal(b1-4)GlcNAc(b1-3)Gal(b1-4)GlcNAc
Procedure, shortened: as §1

[10] = target: Fuc(a1-2)[GalNAc(a1-3)]Gal(b1-4)GlcNAc(b1-3)GalNAc
Procedure, shortened: as §1

[11] = target: Fuc(a1-2)[GalNAc(a1-3)]Gal(b1-4)GlcNAc(b1-3)[Fuc(a1-2)[GalNAc(a1-3)]Gal(b1-4)GlcNAc(b1-6)]GalNAc
Procedure, shortened: as §1

[12] = target: Fuc(a1-2)[GalNAc(a1-3)]Gal(b1-4)GlcNAc(b1-6)GalNAc
Procedure, shortened: as §1

[13] = target: Fuc(a1-2)[GalNAc(a1-3)]Gal(b1-4)[Fuc(a1-3)]GlcNAc
Procedure, shortened: as §1

[14] = target: Fuc(a1-2)[GalNAc(a1-3)]Gal(b1-4)[Fuc(a1-3)]GlcNAc(b1-3)GalNAc
Procedure, shortened: as §1

[15] = target: Fuc(a1-2)[GalNAc(a1-4)]Gal(b1-4)GlcNAc
Procedure, shortened: as §1

[16] = target: Fuc(a1-2)[GalNAc(b1-3)]Gal
Procedure, shortened: as §1

[17] = target: Fuc(a1-3)GlcNAc
Procedure, shortened: as §1

[18] = target: Fuc(a1-3)[Gal(b1-4)]Glc6S
Procedure, shortened: as §1

[19] = target: Fuc(a1-3)[Gal(b1-4)]GlcNAc
Procedure, shortened: as §1

[20] = target: Fuc(a1-3)[Gal(b1-4)]GlcNAc(b1-2)Man
Procedure, shortened: as §1

[21] = target: Fuc(a1-3)[Gal(b1-4)]GlcNAc(b1-2)Man(a1-3)[Fuc(a1-3)[Gal(b1-4)]GlcNAc(b1-2)Man(a1-6)]Man(b1-4)GlcNAc(b1-4)GlcNAc
Procedure, shortened: as §1

[22] = target: Fuc(a1-3)[Gal(b1-4)]GlcNAc(b1-2)Man(a1-3)[Fuc(a1-3)[Gal(b1-4)]GlcNAc(b1-2)Man(a1-6)]Man(b1-4)GlcNAc(b1-4)[Fuc(a1-6)]GlcNAc
Procedure, shortened: as §1

[23] = target: Fuc(a1-3)[Gal(b1-4)]GlcNAc(b1-3)Gal(b1-3)[Fuc(a1-4)]GlcNAc
Procedure, shortened: as §1

[24] = target: Fuc(a1-3)[Gal(b1-4)]GlcNAc(b1-3)Gal(b1-4)[Fuc(a1-3)]GlcNAc
Procedure, shortened: as §1

[25] = target: Fuc(a1-3)[Gal(b1-4)]GlcNAc(b1-3)Gal(b1-4)[Fuc(a1-3)]GlcNAc(b1-3)Gal(b1-4)[Fuc(a1-3)]GlcNAc
Procedure, shortened: as §1

[26] = target: Fuc(a1-3)[Gal(b1-4)]GlcNAc(b1-3)GalNAc
Procedure, shortened: as §1

[27] = target: Fuc(a1-3)[Gal(b1-4)]GlcNAc(b1-6)GalNAc
Procedure, shortened: as §1

[28] = target: Fuc(a1-3)[Gal(b1-4)]GlcNAc(b1-6)[Gal(b1-3)GlcNAc(b1-3)]Gal(b1-4)Glc
Procedure, shortened: as §1

[29] = target: Fuc(a1-3)[Gal(b1-4)]GlcNAc6S
Procedure, shortened: as §1

[30] = target: Fuc(a1-3)[Gal3S(b1-4)]Glc
Procedure, shortened: as §1

[31] = target: Fuc(a1-3)[Gal3S(b1-4)]GlcNAc
Procedure, shortened: as §1

[32] = target: Fuc(a1-3)[Gal3S(b1-4)]GlcNAc6S
Procedure, shortened: as §1

[33] = target: Fuc(a1-3)[GalNAc(b1-4)]GlcNAc
Procedure, shortened: as §1

[34] = target: Fuc(a1-3)[GalNAc(b1-4)]GlcNAc6S
Procedure, shortened: as §1

[35] = target: Fuc(a1-4)GlcNAc
Procedure, shortened: as §1

[36] = target: Fuc(b1-3)GlcNAc
Procedure, shortened: as §1

[37] = target: Gal(a1-2)Gal
Procedure, shortened: as §1

[38] = target: Gal(a1-3)Gal
Procedure, shortened: as §1

[39] = target: Gal(a1-3)Gal(b1-3)GlcNAc
Procedure, shortened: as §1

[40] = target: Gal(a1-3)Gal(b1-3)GlcNAc(b1-2)Man
Procedure, shortened: as §1

[41] = target: Gal(a1-3)Gal(b1-3)GlcNAc(b1-2)Man(a1-3)[Gal(a1-3)Gal(b1-3)GlcNAc(b1-2)Man(a1-6)]Man(b1-4)GlcNAc(b1-4)GlcNAc
Procedure, shortened: as §1

[42] = target: Gal(a1-3)Gal(b1-3)GlcNAc(b1-3)GalNAc
Procedure, shortened: as §1

[43] = target: Gal(a1-3)Gal(b1-3)GlcNAc(b1-6)GalNAc
Procedure, shortened: as §1

[44] = target: Gal(a1-3)Gal(b1-3)[Fuc(a1-4)]GlcNAc(b1-2)Man(a1-3)[Gal(a1-3)Gal(b1-3)[Fuc(a1-4)]GlcNAc(b1-2)Man(a1-6)]Man(b1-4)GlcNAc(b1-4)GlcNAc
Procedure, shortened: as §1

[45] = target: Gal(a1-3)Gal(b1-4)Glc
Procedure, shortened: as §1

B1: DrGal3 (Danio rerio) (protein)
chain: MDLSDALDAPPQQNNQQAGGPVWPGQPANPVWPGQPANPTWPGQPNQPAWPGQPNQQWPGQPGQPTAPGWPGPAPQTGPYGAPGQAPQVLTVPLDFPLQNGAYNKMLITINGEVKPNAKQFTVNLRRGNDIAFHINPRFSEGGKPVIVRNSMIGNNWGREERELPSFPFVPGKPFEMKILITDTEYKVAVNKSHLLEFKHRVFELNQITGLSIYNDVTLSTVNVETLQ
- glycan array binding signal (z-score) [1]: -0.212
- glycan array binding signal (z-score) [2]: -0.246
- glycan array binding signal (z-score) [3]: -0.255
- glycan array binding signal (z-score) [4]: -0.18
- glycan array binding signal (z-score) [5]: -0.006
- glycan array binding signal (z-score) [6]: -0.229
- glycan array binding signal (z-score) [7]: -0.235
- glycan array binding signal (z-score) [8]: 0.449
- glycan array binding signal (z-score) [9]: 1.08
- glycan array binding signal (z-score) [10]: -0.249
- glycan array binding signal (z-score) [11]: -0.18
- glycan array binding signal (z-score) [12]: -0.174
- glycan array binding signal (z-score) [13]: -0.206
- glycan array binding signal (z-score) [14]: 0.107
- glycan array binding signal (z-score) [15]: -0.233
- glycan array binding signal (z-score) [16]: -0.274
- glycan array binding signal (z-score) [17]: -0.278
- glycan array binding signal (z-score) [18]: -0.225
- glycan array binding signal (z-score) [19]: -0.229
- glycan array binding signal (z-score) [20]: -0.223
- glycan array binding signal (z-score) [21]: -0.258
- glycan array binding signal (z-score) [22]: -0.268
- glycan array binding signal (z-score) [23]: -0.252
- glycan array binding signal (z-score) [24]: -0.26
- glycan array binding signal (z-score) [25]: -0.249
- glycan array binding signal (z-score) [26]: -0.254
- glycan array binding signal (z-score) [27]: -0.166
- glycan array binding signal (z-score) [28]: -0.249
- glycan array binding signal (z-score) [29]: -0.125
- glycan array binding signal (z-score) [30]: -0.188
- glycan array binding signal (z-score) [31]: -0.221
- glycan array binding signal (z-score) [32]: -0.244
- glycan array binding signal (z-score) [33]: -0.156
- glycan array binding signal (z-score) [34]: -0.227
- glycan array binding signal (z-score) [35]: -0.202
- glycan array binding signal (z-score) [36]: -0.277
- glycan array binding signal (z-score) [37]: -0.233
- glycan array binding signal (z-score) [38]: -0.263
- glycan array binding signal (z-score) [39]: -0.243
- glycan array binding signal (z-score) [40]: -0.255
- glycan array binding signal (z-score) [41]: -0.214
- glycan array binding signal (z-score) [42]: -0.287
- glycan array binding signal (z-score) [43]: -0.209
- glycan array binding signal (z-score) [44]: -0.227
- glycan array binding signal (z-score) [45]: -0.233
